In patent publication US11999727B2 (Tango Therapeutics, Inc., priority 2020, dated 2024):

How the values were obtained:
PRMT5 [1] = target: T1, PRMT5 (Homo sapiens, UniProt O14744); test: PRMT5 biochemical IC50 assay with SAM as cofactor
T1 construct: purchased Viva (custom protein)

PRMT5 [2] = target: T1, PRMT5; test: PRMT5 biochemical IC50 assay with no cofactor
From the text: Table 1 indicates IC50 values (μM) against PRMT5 for exemplary compounds in the presence of SAM as cofactor, with no cofactor, and with MTA as cofactor, respectively (columns 4-6). […] Ki values can be calculated from the IC50 values as described in the Examples section. As detailed in the Examples section, for the assay performed in the presence of SAM, IC50=Ki×1.5 (Ki=IC50/1.5).

PRMT5 [3] = target: T1, PRMT5; test: PRMT5 biochemical IC50 assay with MTA as cofactor
[4] = test system: HAP1 MTAP-deleted cell line; test: Viability assay, MTAP-deleted cell line; assay type: cell-based; conditions: Homo sapiens
From the text: Table 1 additionally indicates IC50 values in a viability assay for the MTAP-deleted cell line (column 10), indicating the effect of treatment with compound on cell survival.

[5] = read-out: No Cofactor/ rel IC50

T1 sequence (O14744 whole entry): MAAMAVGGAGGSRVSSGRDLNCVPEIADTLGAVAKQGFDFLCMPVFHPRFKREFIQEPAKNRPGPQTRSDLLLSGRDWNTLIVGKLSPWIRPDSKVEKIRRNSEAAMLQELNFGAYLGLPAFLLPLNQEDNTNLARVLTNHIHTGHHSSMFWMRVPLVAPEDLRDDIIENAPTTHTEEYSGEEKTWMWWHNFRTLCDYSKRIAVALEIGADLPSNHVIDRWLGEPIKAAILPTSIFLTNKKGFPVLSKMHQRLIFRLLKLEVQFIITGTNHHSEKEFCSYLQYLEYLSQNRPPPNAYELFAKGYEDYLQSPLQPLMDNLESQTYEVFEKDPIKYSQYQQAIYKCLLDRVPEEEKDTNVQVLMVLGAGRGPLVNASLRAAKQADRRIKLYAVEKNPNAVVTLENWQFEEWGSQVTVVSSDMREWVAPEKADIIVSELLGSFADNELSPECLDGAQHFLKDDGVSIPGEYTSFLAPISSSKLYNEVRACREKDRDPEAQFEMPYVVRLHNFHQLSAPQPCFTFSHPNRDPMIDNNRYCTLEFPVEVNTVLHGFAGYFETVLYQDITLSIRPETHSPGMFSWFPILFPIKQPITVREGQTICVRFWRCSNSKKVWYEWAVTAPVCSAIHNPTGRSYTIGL
T1 sequence (Q9BQA1 whole entry partner): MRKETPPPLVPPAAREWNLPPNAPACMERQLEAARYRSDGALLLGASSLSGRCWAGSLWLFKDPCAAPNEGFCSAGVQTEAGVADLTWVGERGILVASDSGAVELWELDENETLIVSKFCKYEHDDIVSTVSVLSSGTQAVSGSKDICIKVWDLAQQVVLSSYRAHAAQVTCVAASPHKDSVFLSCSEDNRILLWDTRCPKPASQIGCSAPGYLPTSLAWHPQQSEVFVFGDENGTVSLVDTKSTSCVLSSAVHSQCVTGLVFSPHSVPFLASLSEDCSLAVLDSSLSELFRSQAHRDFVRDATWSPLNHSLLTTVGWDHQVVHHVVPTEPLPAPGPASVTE

| IC50 (PRMT5 [1]) | IC50 (PRMT5 [2]; read-out: No Cofactor/rel IC50) | IC50 (PRMT5 [3]) | IC50 (PRMT5 [2]; [5]) | Compound | IC50 [4] |
| --- | --- | --- | --- | --- | --- |
| 50 to 500 nM | 50 to 500 nM | 50 to 500 nM |  | COc1ncc(NC(=O)C(=O)N2CC(C)CCC2c2ccc3[nH]c(=O)ccc3n2)cc1C(N)=O (centres unmarked) [Compound 1077, 2-methoxy-5-[[2-[5-methyl-2-(6-oxo-5H-1,5-naphthyridin-2-yl)-1-piperidyl]-2-oxo-acetyl]amino]pyridine-3-carboxamide] |  |
| > 500 nM | > 500 nM | > 500 nM |  | Cc1cc(NC(=O)C(=O)N2CC(C)C(F)(F)C[C@@H]2c2cccc(Cl)c2)cnc1N (single isomer, unassigned) [Compound 1045] |  |
| > 500 nM | > 500 nM | 50 to 500 nM |  | NC(=O)c1cncc(NC(=O)C(=O)N2CCCCC2c2cc[nH]c(=O)c2)c1 (racemic) [Compound 262, 5-[[2-oxo-2-[2-(2-oxo-1H-pyridin-4-yl)-1-piperidyl]acetyl]amino]pyridine-3-carboxamide] | > 10 µM |
| 50 to 500 nM | 50 to 500 nM | < 50 nM |  | [2H]c1c([2H])c([C@H]2CC[C@H](C)CN2C(=O)C(=O)Nc2cncc(C(N)=O)c2)c([2H])c([2H])c1F [Compound 1062] |  |
| > 500 nM | > 500 nM | 50 to 500 nM |  | C[C@@H]1CC[C@@H](c2cnc3cnn(C)c3c2)N(C(=O)C(=O)Nc2cncc(C(N)=O)c2)C1 (racemic) [Compound 178, rac-5-{2-[(2R,5S)-5-Methyl-2-{1-methyl-1H-pyrazolo[4,3-b]pyridin-6-yl}piperidin-1-yl]-2-oxoacetamido}pyridine-3-carboxamide] | > 10 µM |
| 50 to 500 nM | 50 to 500 nM | < 50 nM |  | [2H][C@]1(c2ccc(F)cc2)CC[C@H](C)CN1C(=O)C(=O)Nc1cncc(C(N)=O)c1 [Compound 1065] |  |
| 50 to 500 nM | > 500 nM | 50 to 500 nM |  | C[C@@H]1CC[C@@H](c2cc(F)c(F)c(F)c2)N(C(=O)C(=O)Nc2cncc(C(N)=O)c2)C1 (racemic) [Compound 403, rac-5-{2-[(2R,5S)-5-Methyl-2-(3,4,5-trifluorophenyl)piperidin-1-yl]-2-oxoacetamido}pyridine-3-carboxamide] | > 10 µM |
| > 500 nM | > 500 nM | > 500 nM |  | Cc1cc(NC(=O)C(=O)N2C[C@@H](C)CC[C@@H]2c2ccc3c(c2)C(=O)NCC3)cnc1N (single isomer, unassigned) [Compound 1046] |  |
| 50 to 500 nM | < 50 nM | < 50 nM |  | Cc1cc(NC(=O)C(=O)N2CC(C)C(F)(F)C[C@H]2c2cccc(Cl)c2)cnc1N (single isomer, unassigned) [Compound 1074] |  |
| > 500 nM | > 500 nM | > 500 nM |  | [2H][C@@]1(c2ccc(F)cc2)CC[C@@H](C)CN1C(=O)C(=O)Nc1cncc(C(N)=O)c1 [Compound 1064] |  |
| 50 to 500 nM | 50 to 500 nM | < 50 nM |  | Cc1cc(NC(=O)C(=O)N2C[C@H](C)CC[C@H]2c2ccc3c(c2)C(=O)NCC3)cnc1N (single isomer, unassigned) [Compound 1073] |  |
| 50 to 500 nM | > 500 nM | 50 to 500 nM |  | C[C@@H]1CC[C@@H](c2ccc(OC3CCOCC3)cc2)N(C(=O)C(=O)Nc2cncc(C(N)=O)c2)C1 (racemic) [Compound 269, rac-5-{2-[(2R,5S)-5-Methyl-2-[4-(oxan-4-yloxy)phenyl]piperidin-1-yl]-2-oxoacetamido}pyridine-3-carboxamide] | > 10 µM |
| > 500 nM | > 500 nM | 50 to 500 nM |  | COc1ncc(NC(=O)C(=O)N2C[C@H](C)C(F)(F)C[C@H]2c2ccc(NS(C)(=O)=O)cc2)cc1C(N)=O (single isomer, unassigned) [Compound 1052] |  |
| 50 to 500 nM | 50 to 500 nM | 50 to 500 nM |  | COc1ncc(NC(=O)C(=O)N2C[C@@H](C)C(F)(F)C[C@@H]2c2ccc(NS(C)(=O)=O)cc2)cc1C(N)=O (single isomer, unassigned) [Compound 1067] |  |
| 50 to 500 nM |  | 50 to 500 nM | > 500 nM | Cc1cc(NC(=O)C(=O)N2C[C@H](C)CC[C@H]2C2CCNC(=O)C2)cnc1N (mixture of isomers) [Compound 156, N-(6-amino-5-methyl-3-pyridyl)-2-[(2R,5S)-5-methyl-2-(2-oxo-4-piperidyl)-1-piperidyl]-2-oxo-acetamide] | > 10 µM |
| > 500 nM | > 500 nM | > 500 nM |  | C[C@H]1CC[C@H](c2ccc3[nH]c(=O)ccc3n2)N(C(=O)C(=O)Nc2cncc(C(N)=O)c2)C1 (single isomer, unassigned) [Compound 1076] |  |
| 50 to 500 nM | 50 to 500 nM | 50 to 500 nM |  | CCc1cc(NC(=O)C(=O)N2CC(C)CCC2c2ccc3[nH]c(=O)ccc3n2)cnc1N (centres unmarked) [Compound 1078] |  |
| 50 to 500 nM | 50 to 500 nM | 50 to 500 nM |  | Cc1cc(NC(=O)C(=O)N2C[C@@H](C)C(F)(F)C[C@@H]2c2ccc3scnc3c2)cnc1N (single isomer, unassigned) [Compound 1049] |  |
| > 500 nM | > 500 nM | 50 to 500 nM |  | O=C(Nc1cncc(C(=O)NO)c1)C(=O)N1CCCCC1c1ccccc1 (centres unmarked) [Compound 378, N-hydroxy-5-(2-oxo-2-(2-phenylpiperidin-1-yl)acetamido)nicotinamide] |  |
| 50 to 500 nM | < 50 nM | < 50 nM |  | C[C@@H]1CC[C@@H](c2ccc3[nH]c(=O)ccc3n2)N(C(=O)C(=O)Nc2cncc(C(N)=O)c2)C1 (single isomer, unassigned) [Compound 1079] |  |
| > 500 nM | > 500 nM | 50 to 500 nM |  | Cc1cc(NC(=O)C(=O)N2C[C@H](C(N)=O)CC[C@@H]2c2ccccc2)cnc1N (racemic) [Compound 328] | > 10 µM |
| 50 to 500 nM | 50 to 500 nM | 50 to 500 nM |  | C[C@@H]1CC[C@@H](c2ccc(C3CCC3)cc2)N(C(=O)C(=O)Nc2cncc(C(N)=O)c2)C1 (racemic) [Compound 406, rac-5-{2-[(2R,5S)-2-(4-Cyclobutylphenyl)-5-methylpiperidin-1-yl]-2-oxoacetamido}pyridine-3-carboxamide] | 1 to 10 µM |
| 50 to 500 nM | > 500 nM | 50 to 500 nM |  | NC(=O)c1cncc(NC(=O)C(=O)N2C[C@H](OC(F)F)CC[C@H]2c2ccccc2)c1 (racemic) [Compound 379, 5-[[2-[(2S,5R)-5-(Difluoromethoxy)-2-phenyl-1-piperidyl]-2-oxo-acetyl]amino]pyridine-3-carboxamide] | > 10 µM |
| 50 to 500 nM | > 500 nM | 50 to 500 nM |  | C[C@@H]1CC[C@@H]([C@H]2C[C@@H](O)C2)N(C(=O)C(=O)Nc2cncc(C(N)=O)c2)C1 (racemic) [Compound 407, rac-5-[[2-[(2R,5S)-2-(3-hydroxycyclobutyl)-5-methyl-1-piperidyl]-2-oxo-acetyl]amino]pyridine-3-carboxamide] | > 10 µM |
| > 500 nM | > 500 nM | > 500 nM |  | Cc1cc(NC(=O)C(=O)N2C[C@H](C)C(F)(F)C[C@H]2c2ccc3scnc3c2)cnc1N (single isomer, unassigned) [Compound 1069] |  |
| > 500 nM | > 500 nM | > 500 nM |  | [2H]c1c([2H])c([C@@H]2CC[C@@H](C)CN2C(=O)C(=O)Nc2cncc(C(N)=O)c2)c([2H])c([2H])c1F [Compound 1063] |  |
| > 500 nM |  | 50 to 500 nM | > 500 nM | CC(=O)N1CCC(c2cccc([C@H]3CC[C@H](C)CN3C(=O)C(=O)Nc3cncc(C)c3)c2)CC1 (racemic) [Compound 44, rac-2-((2R,5S)-2-(3-(1-acetylpiperidin-4-yl)phenyl)-5-methylpiperidin-1-yl)-N-(5-methylpyridin-3-yl)-2-oxoacetamide] | > 10 µM |
| > 500 nM | > 500 nM | 50 to 500 nM |  | C[C@@H]1CC[C@@H]([C@H]2C[C@H](O)C2)N(C(=O)C(=O)Nc2cncc(C(N)=O)c2)C1 (racemic) [Compound 413, rac-5-[[2-[(2R,5S)-2-(3-hydroxycyclobutyl)-5-methyl-1-piperidyl]-2-oxo-acetyl]amino]pyridine-3-carboxamide] | > 10 µM |
| > 500 nM | > 500 nM | > 500 nM |  | [2H]c1c([2H])c([C@]2([2H])CC[C@@H](C)CN2C(=O)C(=O)Nc2cncc(C(N)=O)c2)c([2H])c([2H])c1F [Compound 1066] |  |
| 50 to 500 nM | 50 to 500 nM | < 50 nM |  | [2H]c1c([2H])c([C@@]2([2H])CC[C@H](C)CN2C(=O)C(=O)Nc2cncc(C(N)=O)c2)c([2H])c([2H])c1F [Compound 1060] |  |
